{"source": "PubChem BioAssay AID624296", "about": "(National Center for Advancing Translational Sciences (NCATS), 2012)", "note": "Hit rate of the full screen: of about 350,000 compounds, about 9,900 (2.8%) were called active. Inconclusive means that the source gave no clear call. Such entries were picked first, then a sample of the others. The call rests on the fitted dose curve; in most records, active means well fitted activation curve with a large enough effect; inconclusive means small, poorly fitted or top-dose-only effect; inactive means no such curve, though single readings can be large or run the other way. No potency is given beside an inconclusive call; the fits are too rough. Potency means the concentration at half of the fitted maximal effect; tags describe the fitted curve by direction and shape."}
{"assay": "A quantitative high throughput screen for small molecules that induce DNA re-replication in MCF 10a normal breast cells; further: nearly all actives have a fitted effect of over 50% in size.", "conditions": "MCF 10A DNA re-replication, Hoechst nuclear intensity, 48 h; series mostly up to 46.1 µM"}
{"smiles": "CC(=O)Oc1cc2cccc(OC(C)=O)c(=O)c2c(OC(C)=O)c1OC(C)=O", "Potency": "inactive"}
{"smiles": "COc1ccc(NC(=O)CSc2nnc3ccc(-c4cccnc4)nn23)cc1", "Potency": "inactive"}
{"smiles": "CN1CCN(C(=O)c2cccc(S(=O)(=O)N3CCCCC3)c2)CC1", "Potency": "inconclusive [activator, full curve, poor fit]"}
{"smiles": "O=C(NC1CCCC1)c1sc(=S)n2c1[nH]c(=O)c1ccccc12", "Potency": "inconclusive [activator, full curve]"}
{"smiles": "CCOC(=O)Cc1csc(N/C(=N/S(=O)(=O)c2ccc(Cl)cc2)c2ccccc2)n1", "Potency": "inconclusive [activator, partial curve, poor fit]"}
{"smiles": "CCO[C@H]1OC(C(=O)N2CCN(Cc3ccc4c(c3)OCO4)CC2)=C[C@@H](c2ccc(Br)cc2)[C@@H]1CCCO", "Potency": "inconclusive [activator, single point]"}
{"smiles": "CCCc1nc(NCCO)c(C#N)c2c1CCCC2", "Potency": "inconclusive [activator, partial curve, poor fit]"}
{"smiles": "CCCc1cc(C(=O)N/N=C/c2ccc(CC)s2)c2ccccc2n1", "Potency": "active: 7.31 µM"}
{"smiles": "COc1ccc(NC(=O)c2ccc(-n3c(C)ccc3C)cc2)c(OC)c1", "Potency": "inconclusive [activator, full curve]"}
{"smiles": "CC1OC(CC(=O)O)CC2=C1C(=O)c1c(O)cccc1C2=O", "note": "(centres undefined)", "Potency": "inconclusive [activator, full curve, poor fit]"}
{"smiles": "NC(CO)C(=O)NNCc1ccc(O)c(O)c1O", "note": "(centres undefined)", "Potency": "inconclusive [activator, partial curve, poor fit]"}
{"smiles": "C/C(=N\\NC(=O)c1ccccc1)c1ccc(N2CCOCC2)cc1", "Potency": "inactive"}
{"smiles": "O=C(CC1Sc2ccccc2NC1=O)NNc1ccc(Cl)cc1Cl", "note": "(centres undefined)", "Potency": "inactive"}
{"smiles": "COc1cc(/C=C(/C(=O)O)c2ccc(-c3ccccc3)cc2)cc(OC)c1OC", "Potency": "active: 14.6 µM"}
{"smiles": "CC1N=C(N)C(c2nc3ccccc3n2C)=C1O", "note": "(centres undefined)", "Potency": "inconclusive [activator, partial curve, poor fit]"}
{"smiles": "COc1ccc(C)cc1NS(=O)(=O)c1ccc2c(c1)n(C)c(=O)n2C", "Potency": "inactive"}
{"smiles": "CCOC(=O)c1cc(CC)sc1NC(=O)COC(=O)c1ccccn1", "Potency": "inconclusive [activator, single point]"}
{"smiles": "CCCCOCC1CC(CC#CCN2CCCCC2)C(=O)O1", "note": "(centres undefined)", "Potency": "inconclusive [activator, partial curve, poor fit]"}
{"smiles": "Cc1nc(SCC(=O)NCCN2C(=O)CSC2=O)nc(C)c1C", "Potency": "inactive"}
{"smiles": "Cc1cccc(NC(=O)Nc2cccc(F)c2)n1", "Potency": "inconclusive [activator, partial curve, poor fit]"}
{"smiles": "Nc1c(N2CCCC2)c2ccccc2oc1=O", "Potency": "inconclusive [activator, partial curve, poor fit]"}
{"smiles": "Nc1nccnc1C(=O)OCC(=O)C12CC3CC(CC(C3)C1)C2", "Potency": "inactive"}
{"smiles": "Cc1ccc(OCC(=O)N2N=C(C(F)(F)F)CC2(O)C(C)(C)C)cc1C", "note": "(centres undefined)", "Potency": "active: 8.2 µM"}
{"smiles": "COc1ccc(C(=O)COC(=O)c2c(-c3ccccc3)noc2C)c(OC)c1", "Potency": "inconclusive [activator, single point]"}
{"smiles": "O=C(NNc1ccc(Cl)cc1)c1sccc1Cl", "Potency": "inconclusive [activator, partial curve, poor fit]"}
{"smiles": "COc1ccc(/C=N/Nc2ncnc3scc(-c4ccccc4)c23)cc1OC", "Potency": "inconclusive [activator, single point]"}
{"smiles": "COC(=O)Nc1ccc(S(=O)(=O)N2CCC(C(=O)N3CCC(C)CC3)CC2)cc1", "Potency": "inconclusive [activator, single point]"}
{"smiles": "O=[N+]([O-])c1ccc(Sc2n[nH]c(-c3ccccc3)n2)nc1", "Potency": "inconclusive [activator, single point]"}
{"smiles": "Cc1cc(-c2csc(N)n2)c(C)n1Cc1ccco1", "Potency": "inactive"}
{"smiles": "CCOC(=O)CNc1nnc(SCC(=O)OCC)[nH]c1=O", "Potency": "inconclusive [activator, single point]"}
{"smiles": "N#CC1(c2ccc(NC(=O)c3ccccc3F)cc2)CCCC1", "Potency": "inactive"}
{"smiles": "CCCCOc1ccc2c(c1)C(=O)c1cc(O)ccc1-2", "Potency": "inconclusive [activator, single point]"}
{"smiles": "CCOc1ccc(N2C(=O)CC(N)C2=O)cc1", "note": "(centres undefined)", "Potency": "active: 18.4 µM"}
{"smiles": "Cc1onc(-c2ccccc2Cl)c1C(=O)N1CCN(C/C=C/c2ccccc2)CC1", "Potency": "inconclusive [activator, single point]"}
{"smiles": "CC(C)CCn1nnnc1CN1CCN(C(c2ccccc2)c2ccccc2)CC1", "Potency": "inconclusive [activator, single point]"}
{"smiles": "Cc1cccc(NS(=O)(=O)c2ccc(C(=O)NCC(c3ccco3)N3CCCCC3)cc2)c1C", "note": "(centres undefined)", "Potency": "inconclusive [activator, partial curve, poor fit]"}
{"smiles": "CCOc1ccc(N2C(=O)CC(Sc3nc(CC(C)C)ccc3C#N)C2=O)cc1", "note": "(centres undefined)", "Potency": "inconclusive [activator, single point]"}
{"smiles": "CCOC(=O)Cn1nc(/C=C/c2ccc(C(C)C)cc2)ccc1=O", "Potency": "inconclusive [activator, partial curve]"}
{"smiles": "O=S(=O)(CCN1CCCCC1)CCS(=O)(=O)CCN1CCCCC1", "Potency": "inactive"}
{"smiles": "COc1ccc(Cc2nc3c4c(ncn3n2)Oc2c(ccc3ccccc23)C4c2ccc(OC)c(OC)c2)cc1", "note": "(centres undefined)", "Potency": "inactive"}
{"smiles": "CC(=O)Nc1ccc(OCCOc2ccc(/C=C3/C(=N)N4C=CSC4=NC3=O)cc2)cc1", "Potency": "inconclusive [activator, single point]"}
{"smiles": "COc1ccc2c(c1)CC/C(=C\\C=C\\c1ccccc1OC)C2=O", "Potency": "inconclusive [activator, single point]"}
{"smiles": "Cc1cc(C)cc(NC(=O)CCC(=O)Nc2cc(C)on2)c1", "Potency": "inactive"}
{"smiles": "CCN(c1ccccc1)S(=O)(=O)c1ccc(C(=O)Nc2nnc(COC)o2)cc1", "Potency": "inconclusive [activator, partial curve]"}
{"smiles": "Nc1nc(CN2CCN(c3ccccc3)CC2)nc(N2CCCc3ccccc32)n1", "Potency": "inconclusive [activator, partial curve, poor fit]"}
{"smiles": "CCN(CC)c1ccc(NC(=O)CNCc2ccccc2Cl)c(C)c1", "Potency": "inconclusive [activator, single point]"}
{"smiles": "Cc1ccc(NS(=O)(=O)c2ccc3[nH]c(=O)c(=O)[nH]c3c2)cc1Cl", "Potency": "inconclusive [activator, single point]"}
{"smiles": "COc1cccc(Nc2nc3ccc(C(=O)c4ccccc4)cc3n3cnnc23)c1", "Potency": "active: 9.2 µM"}
{"smiles": "CCCCN1C(=O)C(=O)N(CC(=O)NC2CCCc3ccccc32)C1=O", "note": "(centres undefined)", "Potency": "inconclusive [activator, partial curve, poor fit]"}
{"smiles": "Cc1c(C(=O)Nc2ccncc2)sc2nc(-c3ccc(F)cc3)cn12", "Potency": "inconclusive [activator, single point]"}
{"smiles": "CCN1CCN(S(=O)(=O)CC2(C)C3CCC2(C)C(=O)C3Br)CC1", "note": "(centres undefined)", "Potency": "inactive"}
{"smiles": "CCCCNC(=O)CCC(=O)Nc1ccc2nc(N3CCN(C)CC3)cc(C)c2c1", "Potency": "inactive"}
{"smiles": "CN(C)C(=O)c1ccc(NC(=O)COC(=O)C2CCN(S(=O)(=O)c3ccc4c(c3)OCCO4)CC2)cc1", "Potency": "inactive"}
{"smiles": "COc1cc(C(=O)Nc2cc(-c3nc4cc(C)ccc4o3)ccc2C)cc(OC)c1OC", "Potency": "inconclusive [activator, partial curve, poor fit]"}
{"smiles": "CCOC(=O)N/N=C/c1cn(Cc2ccc(Cl)cc2)c2ccccc12", "Potency": "inactive"}
{"smiles": "CCOC(=O)/C=c1\\s/c(=C\\c2c(OC)ccc3ccccc23)c(=O)n1CC(=O)NCC1CCCO1", "note": "(centres undefined)", "Potency": "active: 1.16 µM"}
{"smiles": "C[C@H]1C=C(C(=O)N2CCN(Cc3ccc4c(c3)OCO4)CC2)O[C@@H](OCc2ccc(CO)cc2)C1", "Potency": "inactive"}
{"smiles": "CCc1ccc2c(CN3CCN(S(=O)(=O)c4cccs4)CC3)cc(=O)oc2c1", "Potency": "inconclusive [activator, single point]"}
{"smiles": "CCc1cc2c(SCC(=O)N3CCCC3=O)ncnc2s1", "Potency": "inconclusive [activator, partial curve, poor fit]"}
{"smiles": "FC(F)(F)c1cc(-c2ccccc2)nc2nc(N3CCOCC3)sc12", "Potency": "inconclusive [activator, single point]"}
{"smiles": "COc1ccc(NC(=O)OCCn2c([N+](=O)[O-])cnc2C)cc1", "Potency": "inconclusive [activator, single point]"}
{"smiles": "CCOC(=O)/C=C/C(=O)Nc1cc(S(=O)(=O)Nc2ccc(OC)cc2)ccc1N1CCOCC1", "Potency": "inconclusive [activator, single point]"}
{"smiles": "Cc1[nH]c2ccccc2c1/C=C(\\C#N)C(=O)NCc1ccccc1", "Potency": "inactive"}
{"smiles": "O=S1(=O)CCN2N=C(C34CC5CC(CC(C5)C3)C4)SC2=N1", "Potency": "inconclusive [activator, single point]"}
{"smiles": "O=C(CCNS(=O)(=O)c1ccccc1)N1CCN(c2ccccc2)CC1", "Potency": "inconclusive [activator, single point]"}
{"smiles": "COC(=O)c1c(NC(=O)c2ccc(Br)s2)sc2c1CCC2", "Potency": "inconclusive [activator, full curve]"}
{"smiles": "Cn1c(SCC(=O)Nc2ccc3nc(SCC(=O)NC4CC4)sc3c2)nnc1-c1ccccc1", "Potency": "inactive"}
{"smiles": "CN(C)C1CCN(Cc2cc(COCc3ccccc3)c3cccnc3c2O)C1", "note": "(centres undefined)", "Potency": "inconclusive [activator, single point]"}
{"smiles": "O=C(CCc1nc2ccccc2c(=O)[nH]1)OCc1nnc(-c2ccccc2)o1", "Potency": "inconclusive [activator, partial curve, poor fit]"}
